PubChem BioAssay AID485344 (National Center for Advancing Translational Sciences (NCATS), 2010)
Screen size: about 340,000 compounds; about 6,900 (2%) were called active. Rule as the data show it: active = inhibition above about 30%; inactive = below that, where a call was filed. Only a part is listed here, and it is no random draw. The source gives no active or inactive call for entries shown without one. More than one record can exist for a structure, and the calls need not agree.

Each compound was assayed against D(2) dopamine receptor (Homo sapiens) (UniProt P14416) (assay: HTS Assay for Allosteric Antagonists of the Human D2 Dopamine Receptor: Primary Screen for Antagonists). Conditions: HEK293 TREx D2 cells, calcium flux, dopamine EC80; at 10 µM; stronger effect = higher value.
UniProt P14416, sequence (P14416 whole entry, looked up): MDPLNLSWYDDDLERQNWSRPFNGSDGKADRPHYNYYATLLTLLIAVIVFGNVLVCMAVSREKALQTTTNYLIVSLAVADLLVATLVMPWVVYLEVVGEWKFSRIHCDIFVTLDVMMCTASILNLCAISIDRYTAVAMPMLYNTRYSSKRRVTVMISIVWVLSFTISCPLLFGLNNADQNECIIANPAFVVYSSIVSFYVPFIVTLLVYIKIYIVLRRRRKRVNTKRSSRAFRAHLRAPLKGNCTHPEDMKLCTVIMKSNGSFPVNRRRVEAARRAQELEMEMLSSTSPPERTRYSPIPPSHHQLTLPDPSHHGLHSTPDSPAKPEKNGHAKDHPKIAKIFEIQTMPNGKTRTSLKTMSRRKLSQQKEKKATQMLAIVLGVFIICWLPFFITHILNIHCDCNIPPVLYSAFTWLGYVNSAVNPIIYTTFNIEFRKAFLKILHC
In short: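 Calcium flux kinetic readout in an inducible HEK293 TREx D2 line plated overnight at 30 C. After 180 s compound exposure, an EC80 dopamine challenge follows with another 180 s kinetic read to detect antagonism.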
Also: 0% is about no effect.

SMILES	inhibition
CCOC(=O)c1ccc(NC(=O)CCS(=O)(=O)c2ccc3c(c2)oc(=O)n3C)cc1	-11.1%
CCc1ccc(-n2nc(C)c3c(C(=O)NCCc4ccc(OC)c(OC)c4)cc(C)nc32)cc1	-8.16%
COc1ccc(CN2COc3ccc4c(-c5ccc(OC)cc5)cc(=O)oc4c3C2)cc1	17.9%
Cc1ccc(-c2nc(S(=O)(=O)c3ccc(C)cc3)c(N3CCN(c4ccccc4)CC3)o2)cc1	0.976%
CCN(CC)CCNC(=O)c1cc(Cl)c(N)cc1OC	active: 81.8%
CN1C[C@H](C(=O)N[C@]2(C)O[C@@]3(O)[C@@H]4CCCN4C(=O)[C@H](Cc4ccccc4)N3C2=O)CC2c3cccc4[nH]cc(c34)C[C@H]21 (some centres undefined)	active: 88.1%
COc1ccc(N2CCN(S(=O)(=O)CCNC(=O)c3ccc(C(F)(F)F)cc3)CC2)cc1	-6.79%
CCOC(=O)c1cc(OC(=O)c2ccc(Cl)cc2)n(-c2ccccc2)n1	18.9%
Cc1ccc(N(CC(=O)N2CCN(c3ccc(Cl)cc3)CC2)S(=O)(=O)c2c(C)noc2C)cc1	-17.6%
COc1ccc(C2C(=O)N(C3CCCCC3)CC(=O)N2Cc2ccccc2Cl)cc1OC (centres undefined)	-0.232%
CCN(CC)C(=O)c1ccc(C)c(Br)c1	active: 31.3%
COc1ccc(-c2nn(CC(=O)Nc3ccccc3F)c3c2cnc2ccc(F)cc23)cc1	0.675%
Cc1ccc(N2CCN(C(=O)c3ccc4c(Cl)c5c(nc4c3)CCCC5)CC2)c(C)c1	8.62%
O=C(Nc1ccc(F)cc1F)c1c2c(nc3ccccc13)C(=O)N(C1CCCCC1)C2	5.19%
Cc1noc(C)c1S(=O)(=O)N(CC(=O)NCc1ccccc1Cl)c1ccc(C(C)C)cc1	-12.2%
O=C(NCc1cccs1)C1CCN(C(=O)N2CCOc3ccccc32)CC1	23.5%
O=C(Nc1c(-c2ccccc2)nc2ccccn12)c1ccc(Br)cc1	5.38%
O=C(CSc1nc2c([nH]c3ccccc32)c(=O)n1-c1ccccc1)c1ccccc1	9.1%
CCOc1ccc(C2C(=O)N(C3CCCCCC3)CC(=O)N2CCc2ccccc2)cc1OC (centres undefined)	10.9%
CCOc1ccc(CCNC(=O)c2cnc3sc(N4CCOCC4)nn3c2=O)cc1	-12.3%
CCC1CCCCN1C(=O)c1nn(-c2ccc(C)cc2)c(=O)c2c1c1ccccc1n2C (centres undefined)	12.5%
COc1ccc(Cn2ccnc2SCC(=O)NCc2ccccc2)cc1	0.452%
COc1ccccc1-c1ccnc2[nH]n(-c3ccccc3)c(=O)c12	-1.31%
CCc1cccc(C)c1NC(=O)Cn1c(=O)cc(C(F)(F)F)c2c(C)nn(C)c21	-2.82%
CCOc1ccc(C(=O)Nc2ccc(S(=O)(=O)N3CCCCC3c3cccnc3)cc2)cc1 (centres undefined)	4.24%

SMILES	inhibition
Cc1ccc(C)c(S(=O)(=O)NCC(c2ccco2)S(=O)(=O)c2ccc(F)cc2)c1 (centres undefined)	-17.7%
Cc1coc2c(C)c3oc(=O)c(CC(=O)N4CCCCC4)c(C)c3cc12	-9.22%
COC(=O)c1ccc(NC(=O)Cc2coc3cc(C)ccc23)cc1	8.54%
COc1ccc(-c2nc3nc(C)cc(Nc4ccc(C(C)=O)cc4)n3n2)cc1	-0.621%
COc1ccccc1NC(=O)Cn1c(=O)n(Cc2ccccc2)c(=O)c2ccccc21	-11.7%
COc1ccc(CN2COc3ccc4c(C)cc(=O)oc4c3C2)cc1	0.165%
COc1cccc(NC(=O)c2oc3ccccc3c2NC(=O)C23CC4CC(CC(C4)C2)C3)c1	2.54%
COc1ccc(NC(=O)C(=O)NCCc2csc(-c3ccc(Cl)cc3)n2)cc1	6.43%
O=C(CCn1c(=O)c2cccn2c2ccc(F)cc21)NCCc1ccccc1Cl	16.5%
CCCOc1ccc(Nc2nc(SC)ncc2C(=O)OCC)cc1	7.02%
COC(=O)c1ccc(NC(=O)Nc2nnc(N(C)C3CCCCC3)s2)cc1	-11.8%
CCOc1ccc(C(=O)Nc2ccc(-c3nc4cc(CC)ccc4o3)cc2)cc1	9.2%
CCc1[nH]nc2c1C(c1ccc(C)o1)C(C#N)=C(N)O2 (centres undefined)	active: 63.9%
CCOc1ccc(-c2ccc(NS(=O)(=O)c3cc(C)c(C)cc3C)cc2)nn1	-14.7%
O=C(CN1CCN(Cc2ccccc2F)C1=O)NC1CCCC1	active: 40%
CCN(C(=O)COc1cc(=O)n(C)c2ccccc12)c1cccc(C(F)(F)F)c1	4.33%
CCOc1ccc(CCNC(=O)c2ccc(CS(=O)(=O)Cc3ccccc3Cl)o2)cc1OCC	4.04%
O=C(Cc1cccs1)NC1CC(=O)N(c2ccccc2)C1 (centres undefined)	6.69%
COc1ccc(-c2c(C)nn3c(C(F)(F)F)cc(-c4ccc(Br)cc4)nc23)cc1	16%
CCc1cccc(C)c1NC(=O)CN1CCCN(Cc2ccc(C)cc2)S1(=O)=O	0.0545%
CCOC(=O)c1cc(-c2ccc(F)cc2)n(CC(=O)NC2CCCCC2)c1C	6.49%
Cc1cc(C)n2c(Nc3c(C)cccc3C)c(-c3ccsc3)nc2n1	3.54%
O=C(CN1CCCN(Cc2ccccc2Cl)S1(=O)=O)Nc1ccc2c(c1)OCCO2	0.217%
Cc1nc2nc(SCC(=O)NCc3ccccc3)nn2c(C)c1Cc1ccccc1Cl	-9.26%
Cc1ccc(OCCSc2nc3ccc(NC(=O)COc4ccc(F)cc4)cc3s2)cc1	-22.6%

SMILES	inhibition
CCN(CC)c1ccc2cc(-c3nnc(-c4ccncc4)o3)c(=O)oc2c1	active: 66.3%
Cc1ccc(C(=O)Sc2cccccc2=O)cc1	active: 37.1%
CCOc1ccc(NC(=O)NC(C)c2c(-n3cccc3)sc(C)c2C)cc1 (centres undefined)	0.0268%
CCOc1ccccc1N1CCN(CC(=O)NC(C)c2ccccc2)CC1 (centres undefined)	active: 100%
Cc1cccc(OCCCCn2nnc3sc4c(c3c2=O)CCC(C)C4)c1 (centres undefined)	-6.33%
O=C(Cn1nc(N2CCN(c3ccccc3)CC2)ccc1=O)NCc1cccc(Cl)c1	9.2%
CCOC(=O)CSc1nc2sc3c(c2c(=O)n1Cc1ccccc1)CC(C)CC3 (centres undefined)	3.76%
CCOc1ccccc1CNC(=O)CN1C(=O)CCCc2ccccc21	-0.182%
Cc1ccc(C)c(CN2CCC(CNC(=O)Cn3ncc4c([nH]c5ccccc54)c3=O)CC2)c1	8.27%
CCn1c2ccccc2c2nnc(N3CCN(c4cccc(C)c4C)CC3)nc21	-25.4%
O=C(NCCCN1CCOCC1)c1ccc2c(c1)N(Cc1ccccc1)C(=O)c1ccccc1S2	15.2%
CCOC(=O)c1c(C=O)c2sc(C)cc2n1C	active: 42.5%
NNC(=O)/C(=C\c1cccs1)NC(=O)c1ccccc1	active: 30.8%
COc1ccc(S(=O)(=O)NCCc2cn3ccsc3n2)cc1OC	0.853%
CC(=O)c1cccc(NC(=O)c2ccc(C)c(S(=O)(=O)N3CCOCC3)c2)c1	active: 49.8%
CCOc1ccc(N(Cc2cc3cc(C)ccc3[nH]c2=O)C(=O)c2cccc(Cl)c2)cc1	1.91%
CCOC(=O)C1CCN(CCC(=O)Nc2ccccc2Cl)CC1	-14.5%
COC(=O)c1ccccc1NS(=O)(=O)c1ccc(F)cc1	active: 32.1%
Cn1c(=O)c2c(nc(NCCc3ccccc3)n2Cc2ccc(Cl)c(Cl)c2)n(C)c1=O	12.6%
CC(C)c1nn2c(=O)cc(COC(=O)c3ccccc3NC(=O)c3cccs3)nc2s1	-12.2%
CC1CCCN(c2csc3ccccc3c2=O)C1 (centres undefined)	-0.921%
CCCN(Cc1cccs1)C(=O)Nc1ccccc1C	3.19%
Cc1oc2c(c1C(=O)Nc1ccc(Cl)cc1F)C1=NCCN1C=N2	9.78%
COc1ccc(Cl)cc1C(=O)NCC(c1ccc(N(C)C)cc1)N1CCOCC1 (centres undefined)	26.8%
Cc1cccc(C)c1OCC(=O)N(Cc1ccc(Cl)cc1)CC1CCCO1 (centres undefined)	10.9%

SMILES	inhibition
Cc1cc(C)cc(NS(=O)(=O)c2cc(Br)cnc2N)c1	active: 31.8%
Cc1nc2sccn2c(=O)c1S(=O)(=O)NCc1ccccc1	22.6%
COc1ccc(Nc2nnc(-c3ccc(C)c(S(=O)(=O)N4CCN(C)CC4)c3)c3ccccc23)cc1	2.62%
Cc1ccc(C)c(N2CCN(C(=O)c3ccc4c(c3)c(C)c(C)n4C)CC2)c1	2.29%
CCOc1ccccc1C1CC(=O)NC(C)=C1C(=O)OCc1ccc(C)cc1 (centres undefined)	8.7%
COc1cc2c(cc1OC)C(COc1ccc3c(C)cc(=O)oc3c1)N(C(=O)c1ccc(C)c(C)c1)CC2 (centres undefined)	3.11%
COC(=O)c1ccc(OC)c(CN2CCCN(Cc3ccc(C)cc3)S2(=O)=O)c1	-2.57%
Cc1cc(C)cc(NC(=O)CCC(=O)Nc2nnc(C(C)C)s2)c1	active: 33.2%
COc1ccc(N2CCN(C(=O)Cc3noc4ccc(C)cc34)CC2)cc1	26.9%
COc1ccc(C(=O)N2CCC(c3ccncc3)CC2)cc1OC	28.3%
CCc1ccc(NC(=O)Cn2ccn(-c3cccc(Cl)c3)c(=O)c2=O)cc1	-16.8%
COc1cc(C(=O)NNC(=O)C2CSC3(C)CCC(=O)N23)cc(OC)c1OC (centres undefined)	active: 40.6%
Cc1ccc(CN2CCc3nc(N4CCN(C)CC4)ncc3C2)cc1	-21%
COc1cccc(NC(=O)CCc2nc(-c3cc(OC)c(OC)c(OC)c3)no2)c1	-13.3%
COc1ccc(CCNC(=O)c2cc(-c3ccc(Cl)cc3)on2)cc1OC	-19.4%
CCOC(=O)c1ccc(NC(=O)c2cc3c(=O)n(C)c4ccccc4c3n2C)cc1	-14.5%
Cn1c(=O)cc(SCC(=O)Nc2cccc(C#N)c2)c2ccc(Cl)cc21	-2.8%
Cc1ccc(C)c(NC(=O)C(=O)NCCc2csc(-c3cccc(F)c3)n2)c1	22.4%
O=C(N/N=C/c1ccccn1)C1CC1	active: 31.9%
CC1CCCN(CCOc2ccc3ccccc3c2Br)C1 (centres undefined)	active: 71.5%
Cc1nc2ccccn2c(=O)c1NC(=O)c1ccccc1Cl	-2.31%
COc1cc2c(C(=O)N3CCN(c4ccc(C)cc4)C(C)C3)cn(CC(C)C)c(=O)c2cc1OC (centres undefined)	-6.22%
COc1ccccc1CNC(=O)Cn1c(-c2cccs2)cc2cc(F)ccc21	-1.41%
CCOc1ccccc1NC(=O)Cn1nc2c3cc(F)ccc3n(Cc3cccc(C)c3)cc-2c1=O	2.99%
